Article PMC4576195
These are yes or no findings as the source states them, for the method shown. In cells and extracts the contact can be indirect. Some entries that bind do so weakly or less than the wild type.

Protein sequences, listed by entry. Tags and fused reporters are not part of them. Lines headed by an entry give the natural chain unless they say otherwise; changes in a name come on top.
UniProt P14635: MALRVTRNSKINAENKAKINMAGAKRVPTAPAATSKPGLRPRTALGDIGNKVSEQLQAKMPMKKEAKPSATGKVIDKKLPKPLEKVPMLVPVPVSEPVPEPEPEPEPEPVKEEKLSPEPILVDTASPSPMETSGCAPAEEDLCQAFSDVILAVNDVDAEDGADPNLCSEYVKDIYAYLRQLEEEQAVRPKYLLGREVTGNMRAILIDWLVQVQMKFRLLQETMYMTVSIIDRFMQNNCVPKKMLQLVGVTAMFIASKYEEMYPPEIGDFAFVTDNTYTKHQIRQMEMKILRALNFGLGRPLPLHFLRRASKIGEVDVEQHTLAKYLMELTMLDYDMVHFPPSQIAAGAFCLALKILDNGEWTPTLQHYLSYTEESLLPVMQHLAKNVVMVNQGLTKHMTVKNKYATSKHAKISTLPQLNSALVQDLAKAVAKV
UniProt P16788: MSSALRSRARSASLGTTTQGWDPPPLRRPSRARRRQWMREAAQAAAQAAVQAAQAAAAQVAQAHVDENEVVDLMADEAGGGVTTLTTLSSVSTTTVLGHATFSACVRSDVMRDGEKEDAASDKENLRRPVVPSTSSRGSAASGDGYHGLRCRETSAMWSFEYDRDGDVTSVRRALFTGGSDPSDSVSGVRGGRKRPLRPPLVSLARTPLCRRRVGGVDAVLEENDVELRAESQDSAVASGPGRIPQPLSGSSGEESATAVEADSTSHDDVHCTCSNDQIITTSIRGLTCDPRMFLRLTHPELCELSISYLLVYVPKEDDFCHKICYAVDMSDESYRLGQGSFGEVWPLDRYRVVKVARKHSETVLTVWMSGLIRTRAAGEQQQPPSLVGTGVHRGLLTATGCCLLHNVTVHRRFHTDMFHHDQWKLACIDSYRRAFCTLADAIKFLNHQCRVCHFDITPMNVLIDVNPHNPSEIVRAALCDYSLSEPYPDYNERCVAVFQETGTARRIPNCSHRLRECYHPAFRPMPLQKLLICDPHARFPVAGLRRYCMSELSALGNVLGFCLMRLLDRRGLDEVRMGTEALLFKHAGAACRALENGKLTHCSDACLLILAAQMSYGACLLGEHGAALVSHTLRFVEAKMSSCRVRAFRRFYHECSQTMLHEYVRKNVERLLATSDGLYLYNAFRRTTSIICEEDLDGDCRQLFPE
UniProt O60563: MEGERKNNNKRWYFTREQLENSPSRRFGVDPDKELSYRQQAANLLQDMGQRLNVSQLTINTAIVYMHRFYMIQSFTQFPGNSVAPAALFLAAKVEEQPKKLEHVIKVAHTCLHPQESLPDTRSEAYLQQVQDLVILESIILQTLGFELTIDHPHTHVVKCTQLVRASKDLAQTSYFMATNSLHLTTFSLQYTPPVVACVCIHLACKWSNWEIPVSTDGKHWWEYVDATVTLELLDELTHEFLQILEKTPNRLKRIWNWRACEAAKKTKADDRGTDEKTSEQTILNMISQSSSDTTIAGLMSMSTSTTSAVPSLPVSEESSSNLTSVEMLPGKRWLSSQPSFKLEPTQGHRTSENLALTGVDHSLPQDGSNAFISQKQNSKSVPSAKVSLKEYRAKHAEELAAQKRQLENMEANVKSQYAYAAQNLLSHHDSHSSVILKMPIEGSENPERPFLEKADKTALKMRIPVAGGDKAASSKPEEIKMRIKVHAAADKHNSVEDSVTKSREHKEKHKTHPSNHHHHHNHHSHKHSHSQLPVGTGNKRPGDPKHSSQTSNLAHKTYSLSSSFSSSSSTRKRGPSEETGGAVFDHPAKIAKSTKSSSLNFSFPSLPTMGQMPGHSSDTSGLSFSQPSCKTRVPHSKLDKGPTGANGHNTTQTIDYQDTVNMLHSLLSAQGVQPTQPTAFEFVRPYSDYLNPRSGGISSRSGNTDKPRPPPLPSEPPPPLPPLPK

What was measured:
Assay in all cases: co-IP
[1] = molecular target: endogenous cyclin B1 (293T cells) (human (endogenous in 293T)) (UniProt P14635)
[2] = molecular target: pUL97-HA (human cytomegalovirus (HCMV)) (UniProt P16788)
[3] = molecular target: endogenous cyclin T1 (293T cells) (human (endogenous in 293T)) (UniProt O60563)

Substance	binding [1]	binding [2]	binding [3]
pUL97 isoform M74 (middle isoform), from pUL97-Flag (from UniProt P16788 74-707) (enzyme)	binds	–	–
pUL97(1-595)-Flag (from UniProt P16788 1-595) (domain or fragment)	no binding	no binding	–
pUL97(1-657)-Flag (from UniProt P16788 1-657) (domain or fragment)	no binding	no binding	–
pUL97(1-692)-Flag (from UniProt P16788 1-692) (domain or fragment)	no binding	no binding	–
pUL97(1-702)-Flag (from UniProt P16788 1-702) (domain or fragment)	no binding	no binding	–
pUL97(1-706)-Flag (from UniProt P16788 1-706) (domain or fragment)	binds	binds	–
pUL97-Flag, full-length pUL97(1-707) (from UniProt P16788 1-707) (enzyme)	–	binds	binds
